Reference: the supplement of paper PMC12217912
The other results are listed elsewhere or left out. Sequences were assembled here from the parent chain. Values near 0.05 are background.

B1: TEV protease; numbered along this chain (parent)
chain: MGESLFKGPRDYNPISSSICHLTNESDGHTTSLYGIGFGPFIITNKHLFRRNNGTLVVQSLHGVFKVKDTTTLQQHLVDGRDMIIIRMPKDFPPFPQKLKFREPQREERICLVTTNFQTKSMSSMVSDTSCTFPSGDGIFWKHWIQTKDGQCGSPLVSTRDGFIVGIHSASNFTNTNNYFTSVPKNFMELLTNQEAQQWVSGWRLNADSVLWGGHKVFMVKPEEPFQPVKEATQL

Variants of: B1
Assay: raw area under fraction-flipped curve 0-4 h after induction (AUC4h, not background-subtracted), DNA-recorder readout of cleavage of the substrate (dimensionless); higher = more cleavage of the substrate by the protease variant
Details: temperature: 34 °C; time window: 0-4 h after rhamnose induction
Procedure: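 In vivo DNA recorder in E. coli TOP10(DE3) ΔrhaA at 34 °C. Each TEVp single-site mutant (parent TEVp 0) is paired with a single-site variant of the 7-mer TEVs (canonical ENLYFQ|S). The substrate sits between flexible linkers in a Bxb1-sfGFP-TEVs-SsrA fusion, so cleavage stabilises Bxb1 and speeds flipping of a recombination array, read by NGS. The value is the raw area under the fraction-flipped curve over 0-4 h after rhamnose induction (AUC4h), with ≥20 reads per time point. It is not background-subtracted; inactive controls average about 0.047.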
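Further: Bxb1 expression induced with 0.2% (w/v) L-rhamnose at OD600 near 0.5, cultures sampled hourly, flipped fraction per protease–substrate barcode pair counted by paired-end Illumina sequencing.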

Variant: MGESLFKGPRDYNPISSSICHLTNESDGHTTSLYGIGFGPFIITNKHLFRRNNGTLVVQSLHGVFKVKDTTTLQQHLVDGRDMIIIRMPKDFPPFPQKLKFREPQREERICLVTTNFQTKSMSKMVSDTSCTFPSGDGIFWKHWIQTKDGQCGSPLVSTRDGFIVGIHSASNFTNTNNYFTSVPKNFMELLTNQEAQQWVSGWRLNADSVLWGGHKVFMVKPEEPFQPVKEATQL [S124K]
- area with substrate ENLYFQA: 0.11
- area with substrate ENLYFQC: 0.119
- area with substrate ENLYFQD: 0.0686
- area with substrate ENLYFQF: 0.0824
- area with substrate ENLYFQG: 0.115
- area with substrate ENLYFQH: 0.0953
- area with substrate ENLYFQI: 0.0762
- area with substrate ENLYFQK: 0.0613
- area with substrate ENLYFQL: 0.0543
- area with substrate ENLYFQM: 0.083
- area with substrate ENLYFQN: 0.0797
- area with substrate ENLYFQP: 0.0507
- area with substrate ENLYFQQ: 0.0835
- area with substrate ENLYFQR: 0.0586
- area with substrate ENLYFQS: 0.11
- area with substrate ENLYFQT: 0.0607
- area with substrate ENLYFQY: 0.0649

Variant: MGESLFKGPRDYNPISSSICHLTNESDGHTTSLYGIGFGPFIITNKHLFRRNNGTLVVQSLHGVFKVKDTTTLQQHLVDGRDMIIIRMPKDFPPFPQKLKFREPQREERICLVTTNFQTKSMSSDVSDTSCTFPSGDGIFWKHWIQTKDGQCGSPLVSTRDGFIVGIHSASNFTNTNNYFTSVPKNFMELLTNQEAQQWVSGWRLNADSVLWGGHKVFMVKPEEPFQPVKEATQL [M125D]
- area with substrate ENLYFQA: 0.0826
- area with substrate ENLYFQC: 0.0826
- area with substrate ENLYFQE: 0.07
- area with substrate ENLYFQF: 0.0704
- area with substrate ENLYFQG: 0.103
- area with substrate ENLYFQH: 0.0777
- area with substrate ENLYFQI: 0.0616
- area with substrate ENLYFQK: 0.0651
- area with substrate ENLYFQL: 0.056
- area with substrate ENLYFQM: 0.0835
- area with substrate ENLYFQN: 0.0672
- area with substrate ENLYFQP: 0.0599
- area with substrate ENLYFQR: 0.0642
- area with substrate ENLYFQS: 0.102
- area with substrate ENLYFQT: 0.0701
- area with substrate ENLYFQV: 0.101
- area with substrate ENLYFQW: 0.063
- area with substrate ENLYFQY: 0.0661

Variant: MGESLFKGPRDYNPISSSICHLTNESDGHTTSLYGIGFGPFIITNKHLFRRNNGTLVVQSLHGVFKVKDTTTLQQHLVDGRDMIIIRMPKDFPPFPQKLKFREPQREERICLVTTNFQTKSMSSMTSDTSCTFPSGDGIFWKHWIQTKDGQCGSPLVSTRDGFIVGIHSASNFTNTNNYFTSVPKNFMELLTNQEAQQWVSGWRLNADSVLWGGHKVFMVKPEEPFQPVKEATQL [V126T]
- area with substrate ENLYFQA: 0.0914
- area with substrate ENLYFQC: 0.124
- area with substrate ENLYFQD: 0.0788
- area with substrate ENLYFQF: 0.0771
- area with substrate ENLYFQG: 0.0973
- area with substrate ENLYFQH: 0.0913
- area with substrate ENLYFQI: 0.0586
- area with substrate ENLYFQK: 0.0562
- area with substrate ENLYFQL: 0.0584
- area with substrate ENLYFQN: 0.0888
- area with substrate ENLYFQR: 0.0893
- area with substrate ENLYFQS: 0.106
- area with substrate ENLYFQT: 0.0654
- area with substrate ENLYFQY: 0.0814

Variant: MGESLFKGPRDYNPISSSICHLTNESDGHTTSLYGIGFGPFIITNKHLFRRNNGTLVVQSLHGVFKVKDTTTLQQHLVDGRDMIIIRMPKDFPPFPQKLKFREPQREERICLVTTNFQTKSMSSMVSQTSCTFPSGDGIFWKHWIQTKDGQCGSPLVSTRDGFIVGIHSASNFTNTNNYFTSVPKNFMELLTNQEAQQWVSGWRLNADSVLWGGHKVFMVKPEEPFQPVKEATQL [D128Q]
- area with substrate ENLYFQA: 0.117
- area with substrate ENLYFQC: 0.131
- area with substrate ENLYFQD: 0.0794
- area with substrate ENLYFQE: 0.0672
- area with substrate ENLYFQG: 0.131
- area with substrate ENLYFQI: 0.0625
- area with substrate ENLYFQK: 0.0616
- area with substrate ENLYFQL: 0.0684
- area with substrate ENLYFQN: 0.0933
- area with substrate ENLYFQP: 0.0611
- area with substrate ENLYFQR: 0.0576
- area with substrate ENLYFQS: 0.131
- area with substrate ENLYFQT: 0.0727
- area with substrate ENLYFQV: 0.0683
- area with substrate ENLYFQW: 0.0842

Variant: MGESLFKGPRDYNPISSSICHLTNESDGHTTSLYGIGFGPFIITNKHLFRRNNGTLVVQSLHGVFKVKDTTTLQQHLVDGRDMIIIRMPKDFPPFPQKLKFREPQREERICLVTTNFQTKSMSSMVSDTSCDFPSGDGIFWKHWIQTKDGQCGSPLVSTRDGFIVGIHSASNFTNTNNYFTSVPKNFMELLTNQEAQQWVSGWRLNADSVLWGGHKVFMVKPEEPFQPVKEATQL [T132D]
- area with substrate ENLYFQA: 0.0592
- area with substrate ENLYFQC: 0.0688
- area with substrate ENLYFQD: 0.037
- area with substrate ENLYFQE: 0.0617
- area with substrate ENLYFQF: 0.0853
- area with substrate ENLYFQG: 0.0555
- area with substrate ENLYFQH: 0.0727
- area with substrate ENLYFQI: 0.0428
- area with substrate ENLYFQK: 0.0483
- area with substrate ENLYFQL: 0.0535
- area with substrate ENLYFQM: 0.056
- area with substrate ENLYFQN: 0.0544
- area with substrate ENLYFQP: 0.0281
- area with substrate ENLYFQQ: 0.0473
- area with substrate ENLYFQR: 0.052
- area with substrate ENLYFQS: 0.0582
- area with substrate ENLYFQT: 0.054
- area with substrate ENLYFQV: 0.0449
- area with substrate ENLYFQW: 0.0495
- area with substrate ENLYFQY: 0.0615

Variant: MGESLFKGPRDYNPISSSICHLTNESDGHTTSLYGIGFGPFIITNKHLFRRNNGTLVVQSLHGVFKVKDTTTLQQHLVDGRDMIIIRMPKDFPPFPQKLKFREPQREERICLVTTNFQTKSMSSMVSDTSCTFCSGDGIFWKHWIQTKDGQCGSPLVSTRDGFIVGIHSASNFTNTNNYFTSVPKNFMELLTNQEAQQWVSGWRLNADSVLWGGHKVFMVKPEEPFQPVKEATQL [P134C]
- area with substrate ENLYFQA: 0.0813
- area with substrate ENLYFQC: 0.1
- area with substrate ENLYFQD: 0.0639
- area with substrate ENLYFQF: 0.0687
- area with substrate ENLYFQG: 0.0792
- area with substrate ENLYFQI: 0.0582
- area with substrate ENLYFQK: 0.0542
- area with substrate ENLYFQL: 0.0668
- area with substrate ENLYFQM: 0.0808
- area with substrate ENLYFQN: 0.0573
- area with substrate ENLYFQP: 0.0666
- area with substrate ENLYFQQ: 0.0703
- area with substrate ENLYFQR: 0.0596
- area with substrate ENLYFQS: 0.0845
- area with substrate ENLYFQT: 0.063
- area with substrate ENLYFQV: 0.0579

Variant: MGESLFKGPRDYNPISSSICHLTNESDGHTTSLYGIGFGPFIITNKHLFRRNNGTLVVQSLHGVFKVKDTTTLQQHLVDGRDMIIIRMPKDFPPFPQKLKFREPQREERICLVTTNFQTKSMSSMVSDTSCTFTSGDGIFWKHWIQTKDGQCGSPLVSTRDGFIVGIHSASNFTNTNNYFTSVPKNFMELLTNQEAQQWVSGWRLNADSVLWGGHKVFMVKPEEPFQPVKEATQL [P134T]
- area with substrate ENLYFQA: 0.0489
- area with substrate ENLYFQD: 0.0783
- area with substrate ENLYFQF: 0.0763
- area with substrate ENLYFQH: 0.0653
- area with substrate ENLYFQI: 0.0601
- area with substrate ENLYFQK: 0.0558
- area with substrate ENLYFQL: 0.0636
- area with substrate ENLYFQN: 0.052
- area with substrate ENLYFQP: 0.0615
- area with substrate ENLYFQR: 0.0701
- area with substrate ENLYFQS: 0.0832
- area with substrate ENLYFQT: 0.0591
- area with substrate ENLYFQV: 0.0683

Variant: MGESLFKGPRDYNPISSSICHLTNESDGHTTSLYGIGFGPFIITNKHLFRRNNGTLVVQSLHGVFKVKDTTTLQQHLVDGRDMIIIRMPKDFPPFPQKLKFREPQREERICLVTTNFQTKSMSSMVSDTSCTFYSGDGIFWKHWIQTKDGQCGSPLVSTRDGFIVGIHSASNFTNTNNYFTSVPKNFMELLTNQEAQQWVSGWRLNADSVLWGGHKVFMVKPEEPFQPVKEATQL [P134Y]
- area with substrate ENLYFQA: 0.0689
- area with substrate ENLYFQC: 0.0849
- area with substrate ENLYFQD: 0.0571
- area with substrate ENLYFQE: 0.0618
- area with substrate ENLYFQF: 0.0721
- area with substrate ENLYFQG: 0.0724
- area with substrate ENLYFQH: 0.0708
- area with substrate ENLYFQI: 0.0656
- area with substrate ENLYFQK: 0.0599
- area with substrate ENLYFQL: 0.065
- area with substrate ENLYFQM: 0.0671
- area with substrate ENLYFQN: 0.0699
- area with substrate ENLYFQP: 0.0644
- area with substrate ENLYFQR: 0.0605
- area with substrate ENLYFQS: 0.0772
- area with substrate ENLYFQT: 0.0595
- area with substrate ENLYFQV: 0.0667
- area with substrate ENLYFQW: 0.0303
- area with substrate ENLYFQY: 0.0591
